Assay results from paper PMC4336329 (PLoS ONE, 2015).
The whole screen tested about 310,000 compounds, of which about 2,200 (0.71%) showed an effect of 50% or more. The effect is printed as a negative number. The list shows a part of the results.

Target: human ether-à-go-go-related gene (hERG) potassium channel (human, UniProt Q12809)
Assay: primary screen, population patch clamp on CHO cells stably expressing hERG

Chain of human ether-à-go-go-related gene (hERG) potassium channel (Q12809 whole entry, looked up): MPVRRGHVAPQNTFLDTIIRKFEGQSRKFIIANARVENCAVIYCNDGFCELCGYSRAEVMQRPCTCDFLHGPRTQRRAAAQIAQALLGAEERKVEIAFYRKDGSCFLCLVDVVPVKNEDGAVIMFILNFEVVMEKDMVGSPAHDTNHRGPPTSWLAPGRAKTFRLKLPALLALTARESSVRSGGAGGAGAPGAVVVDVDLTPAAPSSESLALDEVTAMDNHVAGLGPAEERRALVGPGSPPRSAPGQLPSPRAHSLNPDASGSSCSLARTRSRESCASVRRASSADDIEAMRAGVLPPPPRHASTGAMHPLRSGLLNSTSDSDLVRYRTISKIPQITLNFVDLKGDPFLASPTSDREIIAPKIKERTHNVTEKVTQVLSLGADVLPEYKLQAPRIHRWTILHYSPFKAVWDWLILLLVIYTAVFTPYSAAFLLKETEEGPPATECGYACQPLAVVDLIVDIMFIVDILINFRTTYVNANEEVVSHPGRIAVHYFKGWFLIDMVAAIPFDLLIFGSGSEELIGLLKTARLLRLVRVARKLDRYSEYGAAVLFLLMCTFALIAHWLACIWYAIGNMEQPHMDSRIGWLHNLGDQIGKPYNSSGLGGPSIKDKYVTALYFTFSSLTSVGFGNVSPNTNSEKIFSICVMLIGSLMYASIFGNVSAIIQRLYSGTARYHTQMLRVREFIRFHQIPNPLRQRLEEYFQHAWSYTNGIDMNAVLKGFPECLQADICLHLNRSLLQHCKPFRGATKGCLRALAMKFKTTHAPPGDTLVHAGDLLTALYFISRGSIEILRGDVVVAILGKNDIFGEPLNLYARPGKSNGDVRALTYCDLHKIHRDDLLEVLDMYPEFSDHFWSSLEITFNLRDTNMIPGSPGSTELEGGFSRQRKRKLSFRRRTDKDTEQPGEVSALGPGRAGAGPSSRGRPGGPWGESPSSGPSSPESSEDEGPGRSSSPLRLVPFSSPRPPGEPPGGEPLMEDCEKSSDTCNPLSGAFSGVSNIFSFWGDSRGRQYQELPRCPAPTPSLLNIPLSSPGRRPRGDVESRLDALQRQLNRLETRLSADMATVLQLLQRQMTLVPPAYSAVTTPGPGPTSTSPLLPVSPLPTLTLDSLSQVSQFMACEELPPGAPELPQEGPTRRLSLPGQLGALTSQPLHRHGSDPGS

How did the “hERG current change (%, negative = inhibition) at 1uM” value turn out when CCN(C(=O)CSC1=Nc2ccccc2C2CC=NN12)C1CCS(=O)(=O)C1 (centres unmarked) was run?
The value was 16.7%.

For CCN(CC)CCN(C(=O)/C=C/c1cccs1)c1nc2ccc(F)cc2s1.Cl, which “hERG current change (%, negative = inhibition) at 1uM” value is on record?
Its value is 4.44%.

How did the “hERG current change (%, negative = inhibition) at 1uM” value turn out when Nc1ccc(-c2nc(-c3ccccc3)nc3ccccc23)cc1 was run?
Its value is 5.79%.

With COCCn1c(SCC(=O)Nc2cc(C(C)(C)C)nn2-c2ccccc2)nc2ccccc2c1=O as the compound, how does the “hERG current change (%, negative = inhibition) at 1uM” value read?
Its value is 5.83%.

How did the “hERG current change (%, negative = inhibition) at 1uM” value turn out when Cc1ccc2nc(SCc3ccc([N+](=O)[O-])cc3)nc(C)c2c1 was run?
The value was 4.51%.

How did the “hERG current change (%, negative = inhibition) at 1uM” value turn out when Cc1nc2ccccc2c(=O)n1/N=C/c1c(O)ccc2ccccc12 was run?
Its value is 7.32%.

With Cc1ccc(Nc2nc(N)c([N+](=O)[O-])c(NCc3ccco3)n2)cc1C as the compound, how does the “hERG current change (%, negative = inhibition) at 1uM” value read?
Its value is 10.1%.

For Nc1ccc(N2CCCCC2)c(Cl)c1, which “hERG current change (%, negative = inhibition) at 1uM” value is on record?
The value was 15.1%.

For Fc1ccc(-n2cc(-c3ccccc3)c3c(NN4CCOCC4)ncnc32)cc1, which “hERG current change (%, negative = inhibition) at 1uM” value is on record?
Its value is -0.354%.

With COc1ccc(CN2CCN(C(=O)c3c(-c4ccccc4)noc3C)CC2)cc1F as the compound, how does the “hERG current change (%, negative = inhibition) at 1uM” value read?
Its value is -1.74%.

Which “hERG current change (%, negative = inhibition) at 1uM” value does the source give for CN(C)CCN=Cc1c(O)n(Cc2ccc3c(c2)OCO3)c(=S)[nH]c1=O here?
The value was 10.7%.

For Cc1cc(OC(=O)c2ccco2)c2c3c(c(=O)oc2c1)CCC3, which “hERG current change (%, negative = inhibition) at 1uM” value is on record?
Its value is 10.4%.

With CN=c1scc(-c2ccc(OC)cc2)n1/N=C(\C)c1cccnc1 as the compound, how does the “hERG current change (%, negative = inhibition) at 1uM” value read?
The value was 19.5%.

For O=c1c(Cl)c(Nc2cccc(Cl)c2)cnn1-c1nc2ccccc2s1, which “hERG current change (%, negative = inhibition) at 1uM” value is on record?
The value was 11.6%.

How did the “hERG current change (%, negative = inhibition) at 1uM” value turn out when Cc1nn(-c2ccccc2)c2c1C(c1ccncc1)C(C#N)=C(N)O2 (centres unmarked) was run?
Its value is 10.3%.

CN1CCN(C(=O)c2cc3ccccc3[nH]2)CC1 was tested. Which “hERG current change (%, negative = inhibition) at 1uM” value did it give?
The value was 11.9%.

How did the “hERG current change (%, negative = inhibition) at 1uM” value turn out when COc1ccc(/C=N/N(C)c2cc(=O)n(C)c(=O)[nH]2)cc1OC was run?
Its value is 15.5%.

With CC(OC(=O)c1ccc2c(c1)C(=O)N(Cc1ccncc1)C2=O)C(=O)Nc1cccc(Cl)c1Cl (centres unmarked) as the compound, how does the “hERG current change (%, negative = inhibition) at 1uM” value read?
Its value is 4.8%.

For CCOc1ccccc1OCC(=O)Nc1cccc(S(=O)(=O)NC2=NCCCCC2)c1, which “hERG current change (%, negative = inhibition) at 1uM” value is on record?
Its value is -5.2%.

Cc1nc2ccccc2c(=O)n1/N=C/c1ccc(C(C)C)cc1 was tested. Which “hERG current change (%, negative = inhibition) at 1uM” value did it give?
The value was 19.4%.

Cc1ccc(-c2nnn(CC(=O)NCCC3=CCCCC3)n2)cc1 was tested. Which “hERG current change (%, negative = inhibition) at 1uM” value did it give?
Its value is 18.4%.

For CCc1cc(C(=O)Nc2cc(S(=O)(=O)N(CC)CC)ccc2N2CCOCC2)sc1C, which “hERG current change (%, negative = inhibition) at 1uM” value is on record?
The value was 12.5%.

With O=C(NCc1ccco1)c1ccc(N2CCCC2=O)cc1 as the compound, how does the “hERG current change (%, negative = inhibition) at 1uM” value read?
Its value is 6.75%.

With O=C1CCc2nc3ccccc3c(=O)n2N1 as the compound, how does the “hERG current change (%, negative = inhibition) at 1uM” value read?
Its value is 14.2%.

Cc1ccc2cc(CN(CC3CCCO3)C(=O)C(C)C)c(=O)[nH]c2c1 (centres unmarked) was tested. Which “hERG current change (%, negative = inhibition) at 1uM” value did it give?
Its value is -4.78%.

For CC(=O)OC(C(=O)N1CCN(c2ccc(F)cc2)CC1)c1ccccc1 (centres unmarked), which “hERG current change (%, negative = inhibition) at 1uM” value is on record?
The value was -0.58%.

How did the “hERG current change (%, negative = inhibition) at 1uM” value turn out when NC(=O)c1ccc(NC(=O)CSc2cn(CC(=O)N3CCOCC3)c3ccccc23)cc1 was run?
The value was 15.4%.

How did the “hERG current change (%, negative = inhibition) at 1uM” value turn out when Cc1ccc(S(=O)(=O)c2c(C(=O)c3ccccc3)cnc3cc4c(cc23)OCCO4)cc1 was run?
Its value is 10.9%.

For CC(C)CN=Cc1c(O)c([N+](=O)[O-])cc2oc3c(c12)CCCC3, which “hERG current change (%, negative = inhibition) at 1uM” value is on record?
Its value is 5.26%.

With COC1C(OC(=O)c2ccc(C)[nH]2)C(O)C(Oc2ccc3c(O)c(NC(=O)c4ccc(O)c(CC=C(C)C)c4)c(=O)oc3c2Cl)OC1(C)C (centres unmarked) as the compound, how does the “hERG current change (%, negative = inhibition) at 1uM” value read?
The value was 12.9%.

CC/C(=N/NC(=O)c1ccc2c(c1)OCO2)c1ccccc1O was tested. Which “hERG current change (%, negative = inhibition) at 1uM” value did it give?
The value was 9.19%.

Which “hERG current change (%, negative = inhibition) at 1uM” value does the source give for Nc1ccccc1-n1cccc1 here?
The value was 11%.

How did the “hERG current change (%, negative = inhibition) at 1uM” value turn out when COC(=O)c1[nH]c2ccc(C)cc2c1NC(=O)C(C)N1CCN(C2CCCCC2)CC1 (centres unmarked) was run?
The value was -81%.

For O=C(O)c1ccc(Cl)c(N2C(=O)Nc3ccccc3N2O)c1, which “hERG current change (%, negative = inhibition) at 1uM” value is on record?
The value was 11.4%.

COc1cccc(C(=O)c2cc3cc(Cl)ccc3[nH]2)c1 was tested. Which “hERG current change (%, negative = inhibition) at 1uM” value did it give?
Its value is 15%.

How did the “hERG current change (%, negative = inhibition) at 1uM” value turn out when Cc1c(CCC(=O)N2CCC(C(=O)NCCCCCC(=O)O)CC2)c(=O)oc2cc3oc4c(c3cc12)CCCC4 was run?
Its value is 12.8%.

How did the “hERG current change (%, negative = inhibition) at 1uM” value turn out when C=CCOc1ccc(/C=N/NC(=O)C2CCCC2)cc1OCC was run?
The value was 1.48%.

How did the “hERG current change (%, negative = inhibition) at 1uM” value turn out when COC(=O)[C@H](CC(C)C)NS(=O)(=O)N[C@@H](CC(C)C)C(=O)OC was run?
Its value is 17.4%.

With CSc1nc(=NC(C)=O)ss1 as the compound, how does the “hERG current change (%, negative = inhibition) at 1uM” value read?
The value was 14.4%.

For COc1ccc(CN2C(=O)c3cccnc3C2=O)cc1S(=O)(=O)N1CC(C)Oc2ccccc21 (centres unmarked), which “hERG current change (%, negative = inhibition) at 1uM” value is on record?
Its value is 5.45%.

For Cc1ccc(NC(=O)N2CCC(NC(=O)c3cccc(F)c3)CC2)cc1, which “hERG current change (%, negative = inhibition) at 1uM” value is on record?
Its value is 5.18%.

COc1cccc(CNc2cnc3ccccc3c2)c1O was tested. Which “hERG current change (%, negative = inhibition) at 1uM” value did it give?
The value was 14.9%.

With O=c1c2ccccc2n(Cc2ccccc2F)c(=O)n1Cc1ccccc1F as the compound, how does the “hERG current change (%, negative = inhibition) at 1uM” value read?
Its value is 17.4%.

With CCOc1ccc(C(C(=O)NCC2CCCO2)N(Cc2cccs2)C(=O)c2snc(C(N)=O)c2N)cc1 (centres unmarked) as the compound, how does the “hERG current change (%, negative = inhibition) at 1uM” value read?
The value was 13%.
